Data from article PMC4336329 (PLoS ONE, 2015).
Out of some 310,000 compounds screened, about 2,200 (0.71%) showed an effect of 50% or more. The effect is printed as a negative number. Some of the results follow.

target: human ether-à-go-go-related gene (hERG) potassium channel (human, UniProt Q12809); experiment: primary screen, population patch clamp on CHO cells stably expressing hERG
Sequence (Q12809 whole entry, looked up): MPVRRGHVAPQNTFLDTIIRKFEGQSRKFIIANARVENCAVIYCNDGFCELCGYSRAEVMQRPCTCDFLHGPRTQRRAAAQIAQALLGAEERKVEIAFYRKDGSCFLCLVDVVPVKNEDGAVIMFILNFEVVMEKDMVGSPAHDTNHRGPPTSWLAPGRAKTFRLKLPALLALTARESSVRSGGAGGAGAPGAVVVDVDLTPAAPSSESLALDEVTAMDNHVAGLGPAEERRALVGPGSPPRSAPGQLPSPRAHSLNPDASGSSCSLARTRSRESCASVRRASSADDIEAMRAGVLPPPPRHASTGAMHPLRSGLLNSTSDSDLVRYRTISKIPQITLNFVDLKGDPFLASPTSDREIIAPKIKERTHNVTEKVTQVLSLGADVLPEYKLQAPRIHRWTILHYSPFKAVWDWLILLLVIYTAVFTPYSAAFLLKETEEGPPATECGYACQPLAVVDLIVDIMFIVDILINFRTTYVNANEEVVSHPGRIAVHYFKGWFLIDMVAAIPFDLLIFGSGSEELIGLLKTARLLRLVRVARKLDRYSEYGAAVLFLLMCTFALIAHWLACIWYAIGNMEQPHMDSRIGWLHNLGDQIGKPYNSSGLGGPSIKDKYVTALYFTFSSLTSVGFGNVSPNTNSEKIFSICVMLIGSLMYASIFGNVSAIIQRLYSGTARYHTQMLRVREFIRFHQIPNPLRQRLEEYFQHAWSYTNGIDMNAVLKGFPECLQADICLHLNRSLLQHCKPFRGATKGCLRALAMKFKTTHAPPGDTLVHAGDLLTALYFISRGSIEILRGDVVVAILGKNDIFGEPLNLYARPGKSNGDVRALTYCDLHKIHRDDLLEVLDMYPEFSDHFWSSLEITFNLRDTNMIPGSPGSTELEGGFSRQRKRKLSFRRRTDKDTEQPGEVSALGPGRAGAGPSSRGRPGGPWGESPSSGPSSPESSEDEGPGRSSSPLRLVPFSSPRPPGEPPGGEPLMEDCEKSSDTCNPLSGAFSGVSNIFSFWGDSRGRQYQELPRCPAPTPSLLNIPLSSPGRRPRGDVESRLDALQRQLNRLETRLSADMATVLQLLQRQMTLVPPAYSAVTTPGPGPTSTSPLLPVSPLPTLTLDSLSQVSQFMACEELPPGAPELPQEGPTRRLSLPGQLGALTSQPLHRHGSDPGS

Row | Structure (SMILES) | hERG current change (%, negative = inhibition) at 1uM [%]
1 | COc1ccc(C2(O)CC3CCC(C2)N3c2cc(C)nc(-c3ccccc3)n2)cc1 (stereo not drawn) | -2.84
2 | Cc1ccc(C(=O)Nc2ccc(C(=O)N3CCCCC3)cc2)o1 | 12.4
3 | Cc1ccc(S(=O)(=O)N2CCN(C(=O)COC(=O)CCOc3ccccc3C)CC2)cc1 | -0.62
4 | COc1ccccc1C(=O)Nc1ccnn1C1CCN(C/C=C/c2ccc(F)cc2)CC1 | -86.9
5 | Cc1ccc(S(=O)(=O)N2CCOCC2)cc1C(=O)OCC(=O)N(Cc1ccccc1)C(C)C | 4.55
6 | C/C(=N\NC(=O)c1ccccc1O)c1ccc(Br)s1 | 11.4
7 | O=C(O)C(=O)O.c1ccc(-c2ccccc2OCCCN2CCCC2)cc1 | -49.4
8 | CC1(C)Cc2ccccc2-c2nc3n(c(=O)c21)CCS3 | 8
9 | O=C(CCc1ccccc1Cl)Nc1cc2c(cc1C(=O)O)OCCCO2 | 14.7
10 | COc1ccc(-c2cc(C(=O)Nc3cc(C)nn3-c3ccccc3)no2)cc1 | -3.81
11 | O=C(CSc1nc2cc(Cl)ccc2c(=O)n1Cc1ccco1)Nc1ccc(S(=O)(=O)N2CCOCC2)cc1 | 13.3
12 | COc1cccc2cc(CC(=O)c3ccc(C)cc3C)c(=O)oc12 | 18.4
13 | O=C(CSc1cn(CC(=O)N2CCCCC2)c2ccccc12)NCC1CCCO1 (stereo not drawn) | 3.5
14 | Cc1ccc(Cc2c(C)nc3nc(SCC(=O)NCc4ccco4)nn3c2C)cc1 | 1.97
15 | COc1ccc(CNC(=O)C2CCN(C(=O)c3ccco3)CC2)cc1 | 9.13
16 | CC1(C)Cc2c(sc(NC(=O)c3ccccc3Cl)c2C(=O)O)CO1 | 11.3
17 | O=C(O)C(=O)O.c1cc2c(cc1CCNC1CCCCCC1)OCO2 | 3.23
18 | CCCCn1c(SCC(=O)N2CCOCC2)nnc1-c1cccs1 | 9.56
19 | O=[N+]([O-])c1ccc2c(c1)nnn2-c1ccccc1 | 12.8
20 | CCOC(=O)c1snc(-c2ccc(F)cc2)c1N | 9.39
21 | CC1CCCCC1NC(=O)CSc1nnc(COc2ccc(Cl)cc2)o1 (stereo not drawn) | 9.91
22 | COc1cc(OC)c(NC(=O)Cc2cccs2)cc1Cl | 15.5
23 | Cc1ccc(C)c(NC(=O)CN(C)C(=O)c2ccc(S(=O)(=O)N(C)c3ccccc3)cc2)c1 | 4.04
24 | COc1ccccc1N1C(=NC(=O)C2CCCCC2)SC2CS(=O)(=O)CC21 (stereo not drawn) | -1.61
